Measurements published in PubChem BioAssay AID588549 (Broad Institute, 2011).
Hit rate of the full screen: of about 360,000 compounds, about 780 (0.22%) were called active. The inconclusive results got no clear call from the source; some entries with a clear call stand among them for comparison. Cut-off read from the data, not from the text of the source: active = inhibition above about 8.5% (passing the limit was not always enough); inconclusive = no clear call, values can overlap the other calls.

System: Mycobacterium tuberculosis FadD28 fatty-acid-AMP ligase
Assay: inhibitors of FadD28 bisubstrate probe binding, primary screen, biochemical, fluorescence polarization, single point (AID 588549)
Settings: at 12.5 µM, hits give high values

SMILES | inhibition
CCC(C)(C)NC(=O)CN(C(=O)CCC(=O)Nc1nccs1)c1ccc2c(c1)OCO2 | inconclusive: 10.6%
CC/C(=N\NC(=O)c1ccccc1O)c1c(O)n(Cc2ccccc2)c(=O)[nH]c1=O | active: 17.8%
Cc1cccc(C)c1Cn1c(C)c(C(=O)NCc2ccc([N+](=O)[O-])cc2)sc1=O | inconclusive: 12.3%
CCOc1ccc2[nH]c3c(NCCC(C)C)ncnc3c2c1 | inactive: -0.0405%
CCN(C(=O)c1ccc(N2CC3CC(C2)c2cccc(=O)n2C3)c(NC(=O)c2ccncc2)c1)c1cccc(C)c1 (stereo not drawn) | inactive: -2.71%
COc1cccc(/C=N/n2c(C3CCCCC3)n[nH]c2=S)c1O | active: 14.6%
O=C(NCCN1CCN(c2ccccc2F)CC1)c1cccn2c(=O)c3ccccc3nc12 | inconclusive: 7.26%
Cc1c(C(=O)O)cccc1-c1ccc(/C=N/Nc2ccc(Br)cc2)o1 | active: 17.1%
CCOC(=O)c1cccc(P(=O)(C(C)(C)C)C(C)(C)C)c1 | inconclusive: 8.88%
COc1cccc(N2C(=O)NC(=O)/C(=C/c3ccc([N+](=O)[O-])s3)C2=O)c1 | active: 18.3%
O=C(O)c1ccc(S(=O)(=O)/N=C2\C=C(Nc3ccccc3F)C(=O)c3ccccc32)cc1 | inconclusive: 7.06%
CCc1cccc2c(C(=O)COC(=O)[C@@H]3CC(O)CN3S(=O)(=O)c3ccccc3[N+](=O)[O-])c[nH]c12 (stereo partly drawn) | active: 11%
Cc1ccc(-n2nnnc2-c2cnc(-c3cccnc3)nc2C(F)(F)F)cc1 | inconclusive: 2.14%
CC1(c2ccc(OC(F)F)cc2)NC(=O)N(CC(=O)NC2CCCC2)C1=O (stereo not drawn) | inconclusive: 5.03%
Nc1ccc(C(=O)N/N=C/c2cn(Cc3ccccc3F)c3ccccc23)cc1 | inactive: 1.19%
Nc1ccc2c(c1)-c1ccccc1S(=O)(=O)N2 | active: 25.4%
C=CCOc1c(Br)cc(/C=N/Nc2ccc(C(=O)O)cc2)cc1OCC | inconclusive: 5.19%
Cc1cccc(OCCn2ccnc2)c1C | inconclusive: 4.14%
COc1cccc(C2C([N+](=O)[O-])=C(N)Oc3c2c(=O)oc2ccccc32)c1 (stereo not drawn) | inactive: -0.753%
Cc1cc(N(CCCl)CCCl)ccc1C=NNC(=O)Cc1cc(=O)oc2cc(O)ccc12 | inactive: -1.3%
O=c1/c(=C\c2cc([N+](=O)[O-])cc([N+](=O)[O-])c2O)sc2nc3ccccc3n12 | active: 22.9%
O=C(Nc1ccccc1)c1ccc2nc(-c3ccco3)c(-c3ccco3)nc2c1 | inconclusive: 8.95%
COc1cc(NCCC(=O)c2cccs2)c(OC)cc1Cl | inactive: -0.79%
O=C1NC(=S)N(c2ccccc2)C(=O)/C1=C/c1ccco1 | active: 11.5%
Cc1noc(NS(=O)(=O)c2ccc(N/C=C\C(=O)c3cccc4ccccc34)cc2)c1C | active: 23.7%
O=C1/C(=C\c2cc([N+](=O)[O-])ccc2O)SC(=S)N1Cc1ccc(Cl)cc1 | active: 8.59%
O=C(OCc1ccc(COC(=O)c2ccc(O)cc2)cc1)c1ccc(O)cc1 | inconclusive: 5.07%

SMILES | inhibition
CON(C)C(=O)c1ccccc1N(C)C(=O)OC(C)(C)C | inconclusive: 4.17%
C=COC(=O)CSc1snc(SCC(=O)OC)c1C#N | inactive: -9.3%
Cc1ccc(Cn2nnc3c(=O)[nH]c(C4CCN(S(=O)(=O)Cc5ccccc5)CC4)nc32)cc1 | inconclusive: 5.94%
CSc1ncc(Cl)c(C(=O)Nc2nnc(SC/C=C/c3ccccc3)s2)n1 | active: 15.1%
CCOC(=O)c1ccc(Nc2cc(C)nc(-c3ccccc3O)n2)cc1 | inconclusive: 4.92%
Cc1[nH]n(-c2ccccc2)c(=O)c1N=Nc1c(O)cc(S(=O)(=O)N(C)C)c2ccccc12 | inconclusive: 9.99%
O=c1[nH]c2ccccc2n1C1CCN(C(c2cccc3ccccc23)c2nnnn2Cc2ccccc2)CC1 (stereo not drawn) | inactive: -4.62%
COc1ccccc1C1/C(=C(/O)c2ccccc2)C(=O)C(=O)N1CC(C)O (stereo not drawn) | active: 10%
CCN1/C(=C/C=C/c2oc3ccc(-c4ccccc4)cc3[n+]2CC)Oc2ccc(-c3ccccc3)cc21 | active: 95.4%
CCc1ccc(NC(=O)C2CCCN(S(=O)(=O)c3ccc4[nH]c(=O)ccc4c3)C2)cc1 (stereo not drawn) | inactive: -0.893%
O=C(N/N=C/c1cc(Cl)c(O)c(Cl)c1)c1cc2c(ccc3ccccc32)o1 | active: 39.1%
CCOC(=O)C1(CC2CCCCO2)CCN(S(=O)(=O)c2ccc(OC)cc2)CC1 (stereo not drawn) | inconclusive: 9.19%
C=CC(COCc1ccccc1)N(C(=O)OC(C)(C)C)S(=O)(=O)c1ccccc1Br (stereo not drawn) | inconclusive: 12.3%
COc1c(-c2ccc(O)c(O)c2)oc2cc(O)cc(O)c2c1=O | inconclusive: 8.24%
CC(Sc1nnc(-c2ccc(C(C)(C)C)cc2)n1C)C(N)=O (stereo not drawn) | inconclusive: 5.59%
COc1ccccc1NS(=O)(=O)c1cccc(NC(=O)Nc2ccc(Cl)cc2)c1 | active: 31.3%
CCCN(CC(=O)Nc1ccccc1C)C(=O)CCl | inconclusive: 6.61%
CC(NC(=O)CN1CCN(c2ccccc2F)CC1)c1ccccc1 (stereo not drawn) | inactive: -0.072%
c1ccc2cc(OCCCn3ccnc3)ccc2c1 | inconclusive: 4.14%
O=C(NCc1ccccc1)C1=C[C@@H](c2ccc(C(F)(F)F)cc2)C[C@@H](OCCCCO)O1 | inconclusive: 3.35%
CCn1c(C)cc(/C=C2\NC(=O)N(CC(=O)Nc3cccc(C)c3)C2=O)c1C | active: 10.3%
CN1CCN(NC(=O)c2ccc(S(=O)(=O)N3CCCCCC3)cc2)CC1 | inconclusive: 5.04%
Cc1ccc(-c2csc(/C(C#N)=C(\O)CN3CCN(C(=O)c4ccco4)CC3)n2)cc1 | inconclusive: 8.85%
CC1(C)C(/C=C/C=C/C=C/C=C2\N(CCCCS(=O)(=O)O)c3ccc4ccccc4c3C2(C)C)=[N+](CCCCS(=O)(=O)[O-])c2ccc3ccccc3c21 | active: 11.7%
O=c1cc(-c2ccccc2)nc2c(-c3ccccc3)c(C(F)(F)F)[nH]n12 | inconclusive: 7.14%
Cc1ccc(OCCC(=O)OCC(=O)c2c(N)n(CC(C)C)c(=O)n(C)c2=O)cc1 | inconclusive: 5.3%
